Publication PMC4336329 (PLoS ONE, 2015)
The whole screen tested about 310,000 compounds, of which about 2,200 (0.71%) showed an effect of 50% or more. The effect is printed as a negative number. This is one part of the list.

The molecules below were run against human ether-à-go-go-related gene (hERG) potassium channel (human, UniProt Q12809) (assay: primary screen, population patch clamp on CHO cells stably expressing hERG).
Chain of human ether-à-go-go-related gene (hERG) potassium channel (Q12809 whole entry, looked up): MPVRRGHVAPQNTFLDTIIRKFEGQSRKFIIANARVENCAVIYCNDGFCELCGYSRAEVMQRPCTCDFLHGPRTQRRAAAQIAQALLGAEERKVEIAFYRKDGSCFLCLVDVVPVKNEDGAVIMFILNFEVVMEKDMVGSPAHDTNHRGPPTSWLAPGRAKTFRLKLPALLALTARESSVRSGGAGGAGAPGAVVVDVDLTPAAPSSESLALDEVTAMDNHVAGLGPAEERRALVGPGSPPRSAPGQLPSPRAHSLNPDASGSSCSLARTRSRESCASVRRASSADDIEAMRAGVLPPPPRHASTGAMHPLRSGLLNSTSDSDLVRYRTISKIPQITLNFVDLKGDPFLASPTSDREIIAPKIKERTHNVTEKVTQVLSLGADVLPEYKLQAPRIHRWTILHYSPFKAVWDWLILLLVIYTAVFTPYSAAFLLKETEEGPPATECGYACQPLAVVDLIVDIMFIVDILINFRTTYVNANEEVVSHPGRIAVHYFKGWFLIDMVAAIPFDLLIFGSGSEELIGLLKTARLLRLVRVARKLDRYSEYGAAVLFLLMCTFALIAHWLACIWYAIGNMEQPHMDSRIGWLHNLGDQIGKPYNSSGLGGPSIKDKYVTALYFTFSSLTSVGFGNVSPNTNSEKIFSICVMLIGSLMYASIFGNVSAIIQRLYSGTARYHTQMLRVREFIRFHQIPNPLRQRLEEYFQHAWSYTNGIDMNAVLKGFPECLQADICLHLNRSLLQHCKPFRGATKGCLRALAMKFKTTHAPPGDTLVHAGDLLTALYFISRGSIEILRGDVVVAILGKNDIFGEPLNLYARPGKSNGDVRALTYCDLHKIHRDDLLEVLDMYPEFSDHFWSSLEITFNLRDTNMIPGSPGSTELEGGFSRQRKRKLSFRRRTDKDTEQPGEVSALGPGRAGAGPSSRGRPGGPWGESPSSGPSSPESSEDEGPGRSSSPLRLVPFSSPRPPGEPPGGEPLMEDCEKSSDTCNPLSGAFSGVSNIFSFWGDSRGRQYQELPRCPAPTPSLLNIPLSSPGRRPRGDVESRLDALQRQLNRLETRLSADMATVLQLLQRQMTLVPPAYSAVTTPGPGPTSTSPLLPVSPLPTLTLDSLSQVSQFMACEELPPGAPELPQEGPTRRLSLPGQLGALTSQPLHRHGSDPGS

Question: `Cc1ccc(C)c(N2CCN(C3CCCC(C)C3)CC2)c1` (stereo not drawn) was tested. Which “hERG current change (%, negative = inhibition) at 1uM” value did it give?
Answer: 2.86%

Question: With `COCCCNCCOCCOc1c(OC)cccc1OC` as the molecule, how does the “hERG current change (%, negative = inhibition) at 1uM” value read?
Answer: 14.9%

Question: With `CC(NC(=O)c1ccco1)C(=O)O` (stereo not drawn) as the molecule, how does the “hERG current change (%, negative = inhibition) at 1uM” value read?
Answer: 9.01%

Question: `CC(C)NS(=O)(=O)c1ccc(NC(=O)C(C)OC(=O)CCC2CCCC2)cc1` (stereo not drawn) was tested. Which “hERG current change (%, negative = inhibition) at 1uM” value did it give?
Answer: 12.2%

Question: For `COc1cc(NC(=O)CN(c2ccc(C)cc2)S(=O)(=O)c2c(C)nn(C)c2C)cc(OC)c1`, which “hERG current change (%, negative = inhibition) at 1uM” value is on record?
Answer: 8.32%

Question: For `Cc1oc2c(c(C)cc3oc(=O)c(CC(=O)NCCCN4CCCC4=O)c(C)c32)c1C`, which “hERG current change (%, negative = inhibition) at 1uM” value is on record?
Answer: 8.77%

Question: Which “hERG current change (%, negative = inhibition) at 1uM” value does the source give for `CC(=O)N1c2ccc(S(=O)(=O)NCC3CCC(C(=O)N4CCCCC4)CC3)cc2CC1C` (stereo not drawn) here?
Answer: 14.1%

Question: Which “hERG current change (%, negative = inhibition) at 1uM” value does the source give for `COc1ccccc1NC(=O)CC(=O)CSc1nnc(-c2ccc(C)cc2)n1C` here?
Answer: -3.75%

Question: With `O=C(COc1cc2oc(=O)cc(-c3ccccc3)c2cc1Cl)NCc1ccccn1` as the molecule, how does the “hERG current change (%, negative = inhibition) at 1uM” value read?
Answer: 1.89%

Question: For `CCCCNC(=O)[C@@](CC)(ONc1ccccc1C(F)(F)F)c1cccc2ccccc12`, which “hERG current change (%, negative = inhibition) at 1uM” value is on record?
Answer: 19.1%

Question: For `COC(=O)CN1C(=S)N(c2ccc(Cl)cc2)C(=O)C1CC(=O)Nc1ccc(Cl)cc1` (stereo not drawn), which “hERG current change (%, negative = inhibition) at 1uM” value is on record?
Answer: 10.7%

Question: For `CCOC(=O)C1=NN(c2cccc(C)c2)C2(S1)SC(C(C)=O)=C(C)N2c1ccccc1` (stereo not drawn), which “hERG current change (%, negative = inhibition) at 1uM” value is on record?
Answer: 13%

Question: Which “hERG current change (%, negative = inhibition) at 1uM” value does the source give for `CCOC(=O)c1ccc(N=C(c2ccccc2)c2c(O)n(C)c(=O)n(C)c2=O)cc1` here?
Answer: 10.4%

Question: Which “hERG current change (%, negative = inhibition) at 1uM” value does the source give for `CN(C)c1ccc(/C=N/NC(=O)c2ccc(Cn3cc(Br)cn3)o2)cc1` here?
Answer: -1.08%

Question: With `Cc1cccc(CCNC(=O)CNS(=O)(=O)c2ccc3nc(C)sc3c2)c1` as the molecule, how does the “hERG current change (%, negative = inhibition) at 1uM” value read?
Answer: 16.5%

Question: With `CC(=O)c1sc(Nc2nc(C)cc(C)n2)nc1C` as the molecule, how does the “hERG current change (%, negative = inhibition) at 1uM” value read?
Answer: -0.917%

Question: For `O=C(CCNS(=O)(=O)c1ccc(Cl)cc1)NCc1cccs1`, which “hERG current change (%, negative = inhibition) at 1uM” value is on record?
Answer: 11.3%

Question: `Cc1cccc2nc(CSc3nc4[nH]ncc4c(=O)n3-c3ccccc3Cl)cc(=O)n12` was tested. Which “hERG current change (%, negative = inhibition) at 1uM” value did it give?
Answer: 10.6%

Question: Which “hERG current change (%, negative = inhibition) at 1uM” value does the source give for `CN1CCN(c2ccccc2NC(=O)c2ccc([N+](=O)[O-])cc2Cl)CC1` here?
Answer: 0.769%

Question: For `Cc1nn(CCC#N)c(N)c1C1(O)C(=O)Nc2c(Cl)cc(Cl)cc21` (stereo not drawn), which “hERG current change (%, negative = inhibition) at 1uM” value is on record?
Answer: 8.12%

Question: `CN1CCN(NC(=O)c2ccc(Cl)c([N+](=O)[O-])c2)CC1` was tested. Which “hERG current change (%, negative = inhibition) at 1uM” value did it give?
Answer: 10.8%

Question: For `O=C1NCCCC1C(=O)N/N=C/c1cc([N+](=O)[O-])ccc1O` (stereo not drawn), which “hERG current change (%, negative = inhibition) at 1uM” value is on record?
Answer: 5.34%

Question: `CCOCCCNC(=O)/C(C#N)=C/c1cc(C)c(O)c(C)c1` was tested. Which “hERG current change (%, negative = inhibition) at 1uM” value did it give?
Answer: 14.1%

Question: `Cc1cc(=O)oc2c(CN3CCCCC3)c(O)c(Cl)cc12` was tested. Which “hERG current change (%, negative = inhibition) at 1uM” value did it give?
Answer: 2.8%

Question: With `Cc1cc(C)n2cnnc2n1` as the molecule, how does the “hERG current change (%, negative = inhibition) at 1uM” value read?
Answer: 30.1%

Question: For `O=C(CCC1CCCC1)NCCCN1CCOCC1`, which “hERG current change (%, negative = inhibition) at 1uM” value is on record?
Answer: 13%

Question: For `COC(=O)C1=C(c2cccc(OC)c2OC)C[C@@H]2CC[C@H]1N2C(=O)NC(C)C`, which “hERG current change (%, negative = inhibition) at 1uM” value is on record?
Answer: 12.9%

Question: With `CC(C)(Oc1ccc(Cl)cc1)C(=O)Nc1ccc2oc(=O)ccc2c1` as the molecule, how does the “hERG current change (%, negative = inhibition) at 1uM” value read?
Answer: -10%

Question: With `CCCc1nnc(NC(=O)CCS(=O)(=O)c2ccccc2)s1` as the molecule, how does the “hERG current change (%, negative = inhibition) at 1uM” value read?
Answer: -13.8%

Question: How did the “hERG current change (%, negative = inhibition) at 1uM” value turn out when `O=C(C[n+]1cc(Br)cc2ccccc21)c1ccc(Cl)cc1.[Br-]` was run?
Answer: -11.3%

Question: Which “hERG current change (%, negative = inhibition) at 1uM” value does the source give for `O=C(Cn1nc(-c2ccc(Cl)cc2)ccc1=O)N1CCN(c2ccccc2)CC1` here?
Answer: -0.114%

Question: `O=C(CN1C2CCCC1CC(NC(=O)c1ccccc1)C2)NC1CC1` (stereo not drawn) was tested. Which “hERG current change (%, negative = inhibition) at 1uM” value did it give?
Answer: 15%

Question: How did the “hERG current change (%, negative = inhibition) at 1uM” value turn out when `CS(=O)(=O)c1ccc(-c2cccc(NC(=O)c3ccco3)c2)nn1` was run?
Answer: 17.9%

Question: How did the “hERG current change (%, negative = inhibition) at 1uM” value turn out when `CC12CCC(C(=O)Nc3ccccc3)(C/C1=N\O)C2(C)C` (stereo not drawn) was run?
Answer: 10.4%

Question: `C[C@]12CC[C@@H]3c4ccc(O)cc4CC[C@H]3[C@@H]1CC[C@@H]2OC(=O)CCC(=O)O` was tested. Which “hERG current change (%, negative = inhibition) at 1uM” value did it give?
Answer: 15.6%

Question: `Cc1ccc(CN2CCCC(C(=O)N3CCCC3)C2)cc1.O=C(O)C(=O)O` (stereo not drawn) was tested. Which “hERG current change (%, negative = inhibition) at 1uM” value did it give?
Answer: 5.11%

Question: `CCSc1nnc([C@H](Cc2ccccc2)NC(=O)OC(C)(C)C)o1` was tested. Which “hERG current change (%, negative = inhibition) at 1uM” value did it give?
Answer: 5.6%

Question: With `COc1ccc(OC)c(S(=O)(=O)Nc2cccnc2)c1` as the molecule, how does the “hERG current change (%, negative = inhibition) at 1uM” value read?
Answer: 11.7%

Question: How did the “hERG current change (%, negative = inhibition) at 1uM” value turn out when `O=C(c1ccc(F)cc1)c1cn(Cc2ccc(F)cc2)c2cc3c(cc2c1=O)OCCO3` was run?
Answer: 8.34%

Question: For `COc1cc2nc(=S)n3[nH]c(CCn4nc(C)cc4C)nc3c2cc1OC`, which “hERG current change (%, negative = inhibition) at 1uM” value is on record?
Answer: 12.3%

Question: Which “hERG current change (%, negative = inhibition) at 1uM” value does the source give for `CN1CCc2c(sc3c2C(=O)NC(c2ccc(-c4cccc(Cl)c4)o2)N3)C1` (stereo not drawn) here?
Answer: 1.07%

Question: For `COc1ccccc1CN(C)C(=O)c1cccc(S(=O)(=O)N2CCCC2)c1`, which “hERG current change (%, negative = inhibition) at 1uM” value is on record?
Answer: 2.41%
